This is one part of the list.
Each sequence was assayed against T1, OsWOX13 (Oryza sativa, UniProt Q5QMM3 1-267) (assay: protein-binding microarray (RPBM); PBS, 2% BSA, 51.3 ng/ul salmon testes DNA, 50 uM zinc acetate, 200 nM TF, 25 C, 1 h; high values mean tight binding). Conditions: protein: recombinant; tags: N-terminal polyhistidine and DsRed monomer fusion (pET32a); label: CyDye5-dUTP incorporated in the synthesized complementary strand; 3' TTTTT single-stranded linker to array surface; dsDNA, one strand shown.
T1 sequence: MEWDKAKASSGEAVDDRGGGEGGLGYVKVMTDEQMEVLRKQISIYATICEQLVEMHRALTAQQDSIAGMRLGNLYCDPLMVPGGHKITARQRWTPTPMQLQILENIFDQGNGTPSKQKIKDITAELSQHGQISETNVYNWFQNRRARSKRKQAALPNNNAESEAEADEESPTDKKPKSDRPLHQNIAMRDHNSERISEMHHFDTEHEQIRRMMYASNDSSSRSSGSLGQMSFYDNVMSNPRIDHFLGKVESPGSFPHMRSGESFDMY
Summary of the method: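 Transcription factors, each fused N-terminally to a polyhistidine tag and DsRed, were expressed in E. coli BL21-CodonPlus and purified on Ni–NTA. A custom Agilent array was made double-stranded by primer extension with Cy5-dUTP and blocked with 2% BSA. It was incubated with 200 nM protein in PBS, 2% BSA, salmon testes DNA and 50 µM zinc acetate at 25 °C for 1 h, then washed. The binding signal is per-feature fluorescence intensity (arbitrary units) read on an Axon 4000B scanner.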

Q: Which binding signal does the source give for “TTTCATGATTAATTTCATCCTGCATGAGGCACACGTGCACCGGAGTCACCTAGTGCAG” here?
A: 23600 fluorescence intensity (a.u.)

Q: “CACGGGATAACTGAGCTAAGTGACATGAACGATTTGGGTGCGGAGTCACCTAGTGCAG” was tested. Which binding signal did it give?
A: 3140 fluorescence intensity (a.u.)

Q: How did the binding signal turn out when “GTGATGACGAGTTCGTCTTCATCGCTTCCGGTGTCGGCTCCGGAGTCACCTAGTGCAG” was run?
A: 3260 fluorescence intensity (a.u.)

Q: With “ATATAATTATAGTATAGTAGTAATACTACTACTCCTACCCCGGAGTCACCTAGTGCAG” as the sequence, how does the binding signal read?
A: 20200 fluorescence intensity (a.u.)

Q: “CGGGAATTTAAAATTCAAACTGGGAGTTCGTTTGTGATGCCGGAGTCACCTAGTGCAG” was tested. Which binding signal did it give?
A: 3800 fluorescence intensity (a.u.)

Q: “GGCAATTAAGAATTTACCACTCACAATCTATAACACGTGGCGGAGTCACCTAGTGCAG” was tested. Which binding signal did it give?
A: 5980 fluorescence intensity (a.u.)

Q: With “CCTGATGACTGATGAGGACTGTGCAGCGATCGATATGTGCCGGAGTCACCTAGTGCAG” as the sequence, how does the binding signal read?
A: 48600 fluorescence intensity (a.u.)

Q: “CATATTTTAACCAATAATTTATTTCATGTTATGTTACCAACGGAGTCACCTAGTGCAG” was tested. Which binding signal did it give?
A: 3780 fluorescence intensity (a.u.)

Q: How did the binding signal turn out when “TTAAAACTAAATTTCAAAATTCAGATTTTGGTTTTGGCTTCGGAGTCACCTAGTGCAG” was run?
A: 7400 fluorescence intensity (a.u.)

Q: “GAACCAGCGATGCGAATTTTCCTGCCCTGTTTTCTACTGTCGGAGTCACCTAGTGCAG” was tested. Which binding signal did it give?
A: 40500 fluorescence intensity (a.u.)

Q: “AAATTTGAGGATTTGCCACTGTCAATCATGCGTGAGTCTTCGGAGTCACCTAGTGCAG” was tested. Which binding signal did it give?
A: 4000 fluorescence intensity (a.u.)

Q: “TCATAAATTTCCATGACAATATTTTCTGAACAATATTTTCCGGAGTCACCTAGTGCAG” was tested. Which binding signal did it give?
A: 5020 fluorescence intensity (a.u.)

Q: For “GCGTCGGCAAGTGCTCCTGCTCCTCATCAACTGTGCCGCTCGGAGTCACCTAGTGCAG”, which binding signal is on record?
A: 3280 fluorescence intensity (a.u.)

Q: Which binding signal does the source give for “TTGATTTGAATACATATTTGAAATTAGACTTAATCACTAACGGAGTCACCTAGTGCAG” here?
A: 9280 fluorescence intensity (a.u.)

Q: Which binding signal does the source give for “GTAAATTCGAAAATTACATACTAATTACATATGTAAGTGGCGGAGTCACCTAGTGCAG” here?
A: 18900 fluorescence intensity (a.u.)

Q: How did the binding signal turn out when “ACAATTGACGACAAATTTATCAGAATTCAGAAATTGGGTACGGAGTCACCTAGTGCAG” was run?
A: 25400 fluorescence intensity (a.u.)

Q: With “TGAAATCATAATTATAAATTGTATATTCAGCTAGATTCTACGGAGTCACCTAGTGCAG” as the sequence, how does the binding signal read?
A: 11000 fluorescence intensity (a.u.)

Q: With “CTATCTTAAATTGAGAAGGAAGGTAATAATATGTTGGTGCCGGAGTCACCTAGTGCAG” as the sequence, how does the binding signal read?
A: 12400 fluorescence intensity (a.u.)

Q: With “AGTAATCATATAATAATCCAAGTTATACTGGAATCAAGGGCGGAGTCACCTAGTGCAG” as the sequence, how does the binding signal read?
A: 4170 fluorescence intensity (a.u.)

Q: “TCTTGATTACTTGCATAGAGAGCTTGGGATCATCCATTCACGGAGTCACCTAGTGCAG” was tested. Which binding signal did it give?
A: 28200 fluorescence intensity (a.u.)

Q: Which binding signal does the source give for “ACTAATTATAAATATTAAACGTAGACTATTAATAAAACACCGGAGTCACCTAGTGCAG” here?
A: 18700 fluorescence intensity (a.u.)

Q: “AGTTCCTTCTAATTTATTTTATGTATTCTACAACTACAGCCGGAGTCACCTAGTGCAG” was tested. Which binding signal did it give?
A: 3950 fluorescence intensity (a.u.)

Q: With “CATTTACTAATTTGTTTGCTTGATTGTCCTGGCGAAATTGCGGAGTCACCTAGTGCAG” as the sequence, how does the binding signal read?
A: 40000 fluorescence intensity (a.u.)

Q: “TAATTAAATTGTCATATCACTTCTTAACTTATTGGACTAACGGAGTCACCTAGTGCAG” was tested. Which binding signal did it give?
A: 5280 fluorescence intensity (a.u.)

Q: With “CATGAAGCTGATTTGTTCCGTGAAGCAATTAGGATGGTGTCGGAGTCACCTAGTGCAG” as the sequence, how does the binding signal read?
A: 6470 fluorescence intensity (a.u.)

Q: With “ATAATTGAGATGGAAAGTGTAATAACGAGTGATGCATAAGCGGAGTCACCTAGTGCAG” as the sequence, how does the binding signal read?
A: 19700 fluorescence intensity (a.u.)

Q: How did the binding signal turn out when “CCAAATTTGTGAATAAGTATAAACTACAGATACTGCTCGCCGGAGTCACCTAGTGCAG” was run?
A: 6180 fluorescence intensity (a.u.)

Q: For “AATTAACAATTTACCAAATTATTAGTTATCAACACTAATTCGGAGTCACCTAGTGCAG”, which binding signal is on record?
A: 11300 fluorescence intensity (a.u.)

Q: Which binding signal does the source give for “AATTAATTATTCGAGCAGTTCAAATGGATCAGAGAATAATCGGAGTCACCTAGTGCAG” here?
A: 7360 fluorescence intensity (a.u.)

Q: With “TATGAAATTTAGAGACTTAAATTGAACTTCACAGACATTGCGGAGTCACCTAGTGCAG” as the sequence, how does the binding signal read?
A: 13700 fluorescence intensity (a.u.)

Q: For “CCTAATTTAGGCCCCAAACTAAACCTGCCCCAAATCAAAGCGGAGTCACCTAGTGCAG”, which binding signal is on record?
A: 7500 fluorescence intensity (a.u.)

Q: “CTAGTAGTACTAATTGTGATTATATATGGAGTATTTAATTCGGAGTCACCTAGTGCAG” was tested. Which binding signal did it give?
A: 5470 fluorescence intensity (a.u.)

Q: For “TTCAGTTCATGTCAGATTAACAAATTAACACCTCAAGCCCCGGAGTCACCTAGTGCAG”, which binding signal is on record?
A: 4280 fluorescence intensity (a.u.)

Q: “ACTGTCACTAATAAATCATTGTTTATTACTTAATCACACGCGGAGTCACCTAGTGCAG” was tested. Which binding signal did it give?
A: 5430 fluorescence intensity (a.u.)

Q: How did the binding signal turn out when “TGCAGGTTGATTATGTGTCAACCAATGATCAAGTAGCTGACGGAGTCACCTAGTGCAG” was run?
A: 9240 fluorescence intensity (a.u.)

Q: How did the binding signal turn out when “CAAGTCAATCTATAAGTTATTAGTAGTTGCCAGTTTGCCACGGAGTCACCTAGTGCAG” was run?
A: 7250 fluorescence intensity (a.u.)

Q: Which binding signal does the source give for “CAAAATTGACAACAAGCAAACATCTCATCATCACCAGTACCGGAGTCACCTAGTGCAG” here?
A: 30600 fluorescence intensity (a.u.)

Q: How did the binding signal turn out when “CATGATTGAAGATTTGAAGAGCACATGAGAATTATACTTCCGGAGTCACCTAGTGCAG” was run?
A: 41700 fluorescence intensity (a.u.)

Q: “TCTAAATTTTAATATGTAATCATACCACGGAGGCAAAGCTCGGAGTCACCTAGTGCAG” was tested. Which binding signal did it give?
A: 21900 fluorescence intensity (a.u.)

Q: With “AGGTTGACATGAAGATGAAATAAACAAATAGCATGTTGATCGGAGTCACCTAGTGCAG” as the sequence, how does the binding signal read?
A: 4210 fluorescence intensity (a.u.)

Q: “TTATCCAATTATATCTTTTAGTGTGTGTGTGTGTATATATCGGAGTCACCTAGTGCAG” was tested. Which binding signal did it give?
A: 5750 fluorescence intensity (a.u.)

Q: Which binding signal does the source give for “ATAGTATATGGTTGGGCAATTGATTGACCAACTAACAGTTCGGAGTCACCTAGTGCAG” here?
A: 10900 fluorescence intensity (a.u.)

Source: publication PMC7819943, “Rice protein-binding microarrays: a tool to detect cis-acting elements near promoter regions in rice”
